Out of some 110,000 compounds screened, about 230 (0.21%) showed an effect of 50% or more. The list shows a part of the results.
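Also: 30 min substrate incubation versus DMSO and 10 µM JCP410 controls.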

For this experiment, the target named is DPAP1 (Plasmodium falciparum, UniProt Q8IIJ9). The experiment in a line: primary screen, percent inhibition; read by cleavage of a fluorogenic dipeptide substrate; higher = more effect of the substance. Details: species or system P. falciparum D10 trophozoite lysates; single well.
Sequence of DPAP1 (Q8IIJ9 whole entry, looked up): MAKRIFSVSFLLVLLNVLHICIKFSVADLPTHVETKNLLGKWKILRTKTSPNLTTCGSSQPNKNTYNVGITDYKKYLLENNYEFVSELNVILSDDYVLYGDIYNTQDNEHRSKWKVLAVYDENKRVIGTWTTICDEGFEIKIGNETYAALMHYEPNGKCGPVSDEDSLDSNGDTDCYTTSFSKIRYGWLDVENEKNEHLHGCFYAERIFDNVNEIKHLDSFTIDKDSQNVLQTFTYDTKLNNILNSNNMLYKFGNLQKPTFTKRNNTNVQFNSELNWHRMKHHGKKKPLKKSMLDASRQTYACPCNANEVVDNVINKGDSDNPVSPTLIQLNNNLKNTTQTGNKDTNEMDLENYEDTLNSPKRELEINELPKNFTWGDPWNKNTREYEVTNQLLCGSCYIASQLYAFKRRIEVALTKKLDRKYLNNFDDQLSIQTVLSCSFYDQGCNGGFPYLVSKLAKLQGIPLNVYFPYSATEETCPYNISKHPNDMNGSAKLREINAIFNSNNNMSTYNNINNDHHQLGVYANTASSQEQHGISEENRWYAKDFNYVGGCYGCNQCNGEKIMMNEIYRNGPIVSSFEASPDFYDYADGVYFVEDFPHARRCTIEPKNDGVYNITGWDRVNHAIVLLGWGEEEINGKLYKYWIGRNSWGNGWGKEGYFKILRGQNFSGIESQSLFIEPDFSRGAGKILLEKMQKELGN
Take `Cc1cccc(Cn2c(NCCCn3ccnc3)nc3c2c(=O)[nH]c(=O)n3C)c1`: the “% Inhibition @ 10 uM” value was 3.59%.

Take `COc1ccc(S(=O)(=O)NCC2CCC(C(=O)NC3CCCCCCC3)CC2)cc1` (stereo not shown): the “% Inhibition @ 10 uM” value is reported as -4.53%.

Turning to `O=C(Nc1ccc(Br)cc1F)C1CC(=O)N(c2ccc(F)cc2)C1` (stereo not shown), the “% Inhibition @ 10 uM” value was 5.26%.

For the molecule `Fc1ccccc1C1C=C(c2ccccc2)Nc2ncnn21` (stereo not shown), the “% Inhibition @ 10 uM” value amounted to 2.4%.

Regarding `Cc1cc(S(=O)(=O)N2CC=C(c3c(C)n(CC(=O)N4CCCC4)c4ccccc34)CC2)ccc1F`, the “% Inhibition @ 10 uM” value came to 5.53%.

On to `CCOc1ccccc1-n1nnc(-c2nc(-c3ccncc3)no2)c1N`, for which the “% Inhibition @ 10 uM” value was determined as 1.66%.

For the molecule `Cc1c2cnn(CC(=O)NCCN3CCCC3)c(=O)c2c(C)n1Cc1ccc(Cl)cc1`, the “% Inhibition @ 10 uM” value is listed as -0.447%.

Take `C=C(C)CC1NC2CC(C)(C)C1c1ccccc12` (stereo not shown): the “% Inhibition @ 10 uM” value is given as -1.44%.

`Cc1ccc(NC(=O)Nc2sc(NS(=O)(=O)c3ccccc3)nc2C)cc1`: the “% Inhibition @ 10 uM” value is given as -3.78%.

As for `O=C(NCc1nc2nc(-c3ccccc3)cc(C(F)(F)F)n2n1)c1ccccc1`, the “% Inhibition @ 10 uM” value is 2.84%.

On to `COc1ccc(CNC(=O)c2cc3c(=O)n4ccccc4nc3n2C)cc1`, for which the “% Inhibition @ 10 uM” value came to 3.56%.

For the molecule `CC12C=CC(O1)C1C(=O)N(c3ccc(F)c(Cl)c3)C(=O)C12` (stereo not shown), the “% Inhibition @ 10 uM” value is recorded as 0.189%.

Turning to `COCc1cc(C)nc2sc3c(c12)N(C(C)=O)C(c1ccc(F)cc1)NC3=O` (stereo not shown), the “% Inhibition @ 10 uM” value was determined as 1.03%.

With `COC(=O)c1ccc2c(c1)Cc1c(O)nc(-c3ccccc3)nc1O2`, the “% Inhibition @ 10 uM” value is listed as -1.06%.

With `NC(=O)c1ccc(NC(=O)Cn2cnc3ccccc3c2=O)cc1`, the “% Inhibition @ 10 uM” value is -3.05%.

Regarding `COc1ccc(Cn2c(C(=O)O)c(CNCCc3ccc(Cl)cc3)c3ccc(OC)cc32)cc1`, the “% Inhibition @ 10 uM” value is given as 2.86%.

On to `CCCc1cc(C(=O)NC(C)C23CC4CC(CC(C4)C2)C3)n(C)n1` (stereo not shown), for which the “% Inhibition @ 10 uM” value was -0.92%.

Turning to `Oc1ccc(NCc2ccc(Cl)cc2Cl)cc1`, the “% Inhibition @ 10 uM” value is on record as -0.366%.

As to `CC(C)c1ccc(NC(=O)/C=C/c2cccc([N+](=O)[O-])c2)cc1`, the “% Inhibition @ 10 uM” value is recorded as -1.92%.

Take `NC(=O)c1cccc(NC(=O)/C=C/C(=O)O)c1`: the “% Inhibition @ 10 uM” value was determined as 0.634%.

Turning to `COc1ccc(C2C(C#N)=C(N)Oc3[nH]nc(C)c32)cc1OC` (stereo not shown), the “% Inhibition @ 10 uM” value was found to be 1.01%.

`CCOC(=O)N1CCC(NC(=O)c2oc3ccc4c(c3c2C)C(O)CC(C)(C)O4)CC1` (stereo not shown): the “% Inhibition @ 10 uM” value worked out at 1.63%.

With `CCOC(=O)C1=C(C)NC(=O)NC1c1cn(-c2ccccc2)nc1-c1ccc(Cl)cc1` (stereo not shown), the “% Inhibition @ 10 uM” value is on record as 3.95%.

`COc1cc(OC)c(OC)cc1/C=N/c1sc2c(c1C#N)CCCC2`: the “% Inhibition @ 10 uM” value is given as 1.25%.

Turning to `COCCCNC(=O)c1cc(Sc2ccccc2C(F)(F)F)nc2ccccc12`, the “% Inhibition @ 10 uM” value was -1.79%.

`O=C1c2ccccc2C(=O)N1CN1CCC(Cc2ccccc2)CC1`: the “% Inhibition @ 10 uM” value is listed as -5.6%.

In the case of `CC1CC(C)CN(C(=O)c2ccc3c(Cl)c4c(nc3c2)CCC4)C1` (stereo not shown), the “% Inhibition @ 10 uM” value was determined as 1.15%.

Take `NCCc1c(C(=O)O)[nH]c2ccc(S(N)(=O)=O)cc12`: the “% Inhibition @ 10 uM” value is 4.93%.

On to `CCCNS(=O)(=O)c1ccc2c(c1)nc1n2CCC1`, for which the “% Inhibition @ 10 uM” value is given as 15.3%.

With `COc1cccc(/C(O)=C/c2nc3ncc(Br)cc3nc2O)c1`, the “% Inhibition @ 10 uM” value was found to be 0.166%.

On to `N#C/C(=C/c1cccc(F)c1)C(=O)NCCc1ccccc1`, for which the “% Inhibition @ 10 uM” value is given as -9.56%.

On to `COc1cc(/C=C(\C#N)c2nc3ccccc3[nH]2)ccc1OCc1cc(=O)n2nc(C)sc2n1`, for which the “% Inhibition @ 10 uM” value is -2.19%.

As to `Cc1cc(Cl)ccc1OCC(=O)Nc1ccc(CN2CCOCC2)cc1`, the “% Inhibition @ 10 uM” value is reported as -4.91%.

Regarding `Cc1nn(-c2ccccc2)c2c1C(c1c(C)[nH]c(C#N)c1C)C(C#N)=C(N)O2` (stereo not shown), the “% Inhibition @ 10 uM” value was found to be 0.503%.

With `CSc1ccc(C2CC(=O)Nc3c2c(=O)n(C)c(=O)n3C)cc1` (stereo not shown), the “% Inhibition @ 10 uM” value is -7.51%.

`CCC(CC)C(=O)Nc1ccccc1C(=O)OC`: the “% Inhibition @ 10 uM” value is -5.06%.

`O=C(Nc1cccc(Cl)c1)c1ccccc1NC(=O)C1CCCCC1C(=O)O` (stereo not shown): the “% Inhibition @ 10 uM” value is reported as -0.95%.

Consider `COc1ccc(C2=NS(=O)(=O)N(C)C(C(=O)NCc3ccc(F)cc3)=C2)cc1OC`, for which the “% Inhibition @ 10 uM” value was found to be 5.48%.

In the case of `Cc1ccc(C)c(S(=O)(=O)c2nnn3c2nc(NCC2CCCO2)c2sccc23)c1` (stereo not shown), the “% Inhibition @ 10 uM” value is on record as -4.34%.

For the molecule `Cc1ccc(C(=O)Nc2ccccc2C(F)(F)F)cc1`, the “% Inhibition @ 10 uM” value is -9.9%.

In the case of `CC1C2CC(C(C3C(=O)C4CC3C(C)(C)C4C)C2=O)C1(C)C` (stereo not shown), the “% Inhibition @ 10 uM” value is reported as -4.26%.

Consider `COCCc1c(C)c(C#N)c2n(C)c3ccccc3n2c1=O`, for which the “% Inhibition @ 10 uM” value is -2.24%.

Take `CC1CCN(c2nc3ccc(C(=O)NC4CCN(Cc5ccccc5)CC4)cc3s2)CC1`: the “% Inhibition @ 10 uM” value stood at 12.6%.

For `Cc1cc(C(=O)NCCCN2CCc3ccccc3C2)n(-c2ccccc2)n1`, the “% Inhibition @ 10 uM” value is -7.53%.

Turning to `Cc1ccc2nc(N(CCCN(C)C)C(=O)c3ccccc3)sc2c1`, the “% Inhibition @ 10 uM” value was -9%.

As to `COc1ccc(C2C3CCc4ccc(OC)cc4C3=NN2/C(C)=C/C(C)=O)cc1` (stereo not shown), the “% Inhibition @ 10 uM” value is recorded as 22.9%.

Take `Cc1nn(Cc2ccccc2Cl)c(C)c1NC(=O)c1ccn(C)n1`: the “% Inhibition @ 10 uM” value was 2.65%.

As for `CCc1nc2c(cnn2-c2ccc(Cl)cc2)c(=O)n1Cc1ccccc1`, the “% Inhibition @ 10 uM” value amounted to 1.9%.

Take `COc1ccc(C(=O)Cc2cc3cccc(OC)c3oc2=O)cc1`: the “% Inhibition @ 10 uM” value is on record as -1.06%.

Regarding `CC(NC(=O)c1ccccc1NS(=O)(=O)c1ccc(Br)s1)c1ccccc1` (stereo not shown), the “% Inhibition @ 10 uM” value is -4.63%.

Regarding `C=C(C)CNC(=S)Nc1sc2c(c1C(=O)OCC)CC(C)(C)OC2`, the “% Inhibition @ 10 uM” value came out at 7.76%.

As for `Nc1n[nH]c(-c2ccco2)n1`, the “% Inhibition @ 10 uM” value is reported as 0.675%.

Consider `CCOC(=O)/C(C#N)=C/c1c(Oc2cc(C)cc(C)c2)nc2ccccn2c1=O`, for which the “% Inhibition @ 10 uM” value was -1.43%.

Regarding `C=CCn1c(SCC(=O)N2CCc3ccccc3C2)nc2ccccc2c1=O`, the “% Inhibition @ 10 uM” value was -0.519%.

Take `CCN(CC)S(=O)(=O)c1ccc(Cl)c(C(=O)Nc2sc3c(c2C#N)CCCC3)c1`: the “% Inhibition @ 10 uM” value turned out to be 2.92%.

Consider `O=C(NCc1ccncc1)c1ccc(Br)o1`, for which the “% Inhibition @ 10 uM” value is recorded as -1.54%.

On to `CCOc1ccc2ccccc2c1/C=C1\NC(=O)N(Cc2ccc(Cl)cc2)C1=O`, for which the “% Inhibition @ 10 uM” value is on record as 0.487%.

As for `Cc1ccc(-c2c(O)c(=O)/c2=N\CCCN2CCCC(C)C2)cc1` (stereo not shown), the “% Inhibition @ 10 uM” value is recorded as 0.867%.

In the case of `Cn1c(C(=O)O)c(S(=O)(=O)c2ccc(Cl)cc2)c2ccccc21`, the “% Inhibition @ 10 uM” value amounted to 4.79%.

In the case of `CCC[C@H](N[C@H](C(=O)NCc1ccccn1)c1ccc(-c2ccc(S(C)(=O)=O)cc2)cc1)C(=O)NC1(C#N)CC1`, the “% Inhibition @ 10 uM” value came to 1.7%.

For `CCCCCC1(C)C(C#N)(C(=O)OC)C1(C#N)C(=O)OC` (stereo not shown), the “% Inhibition @ 10 uM” value was -4.06%.

(Values after publication PMC6919601, “Identification of Plasmodium dipeptidyl aminopeptidase allosteric inhibitors by high throughput screening” (PLoS ONE, 2019).)
